Measurements reported in the supplement of paper PMC4604168 (melanoma cell lines).
This is one part of the list. Single values are uncertain, as repeats are few or missing.

Legend:
Experiment in all cases: cell count relative to DMSO control; melanoma cells; higher = more viable cells
Details in all cases: library dose: low library concentration; 72 h
WM115 = system: WM115
WM1716 = system: WM1716
WM1745 = system: WM1745
WM3526 = system: WM3526
WM3619 = system: WM3619
WM451Lu = system: WM451Lu
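Further: cell number obtained by counting DAPI-stained nuclei in high-throughput microscope images with image analysis software, screen run in 1,536-well plates.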

Row | SMILES | cell count (WM115) [%] | cell count (WM1716) [%] | cell count (WM1745) [%] | cell count (WM3526) [%] | cell count (WM3619) [%] | cell count (WM451Lu) [%]
1 | C[As](C)SC[C@H](NC(=O)CC[C@H](N)C(=O)O)C(=O)NCC(=O)O [Darinaparsin] + COc1ccc(-c2ccc3c(N4CCOCC4)nc(N4C[C@@H](C)O[C@@H](C)C4)nc3n2)cc1CO [KU0063794] (first compound 0.4 µM, partner dose 0.02 µM) | 90.9 | 84.5 | 91.7 | 115 | 91.4 | 89.4
2 | N.N.[Cl][Pt][Cl] [cisplatin] + Nc1ccn([C@@H]2O[C@H](CO)[C@@H](O)C2(F)F)c(=O)n1 [gemcitabine] (first compound 1.6 µM, partner dose 0.0004 µM) | 114 | 98.7 | 100 | 120 | 94.9 | 98.9
3 | C[As](C)SC[C@H](NC(=O)CC[C@H](N)C(=O)O)C(=O)NCC(=O)O [Darinaparsin] + OCCn1cc(-c2cnc3nnn(Cc4ccc5ncccc5c4)c3n2)cn1 [PF04217903] (first compound 0.4 µM, partner dose 1 µM) | 108 | 93.8 | 78 | 93.5 | 119 | 70
4 | N.N.[Cl][Pt][Cl] [cisplatin] + Cn1c(Nc2ccc(C(F)(F)F)cc2)nc2cc(Oc3ccnc(-c4ncc(C(F)(F)F)[nH]4)c3)ccc21 [CHIR265] (first compound 1.6 µM, partner dose 0.08 µM) | 106 | 93.3 | 96.6 | 104 | 106 | 88.6
5 | C[As](C)SC[C@H](NC(=O)CC[C@H](N)C(=O)O)C(=O)NCC(=O)O [Darinaparsin] + COc1ccc2c(c1)CCC1C2CCC2(C)C(NCCCCCCN3C(=O)C=CC3=O)CCC12 [U73122] (first compound 0.4 µM, partner dose 0.4 µM) | 90.3 | 105 | 87.5 | 118 | 94.8 | 72.4
6 | C[C@]12O[C@H](C[C@]1(O)CO)n1c3ccccc3c3c4c(c5c6ccccc6n2c5c31)CNC4=O [Lestaurtinib] + CS(=O)(=O)c1ccc(C(=O)Nc2ccc(Cl)c(-c3ccccn3)c2)c(Cl)c1 [vismodegib] (first compound 0.004 µM, partner dose 1 µM) | 91.8 | 96.4 | 91.4 | 70.8 | 106 | 101
7 | N.N.[Cl][Pt][Cl] [cisplatin] + CCCCCCCCCCCC1=C(O)C(=O)C=C(O)C1=O [Embelin] (first compound 1.6 µM, partner dose 1.2 µM) | 101 | 97.9 | 110 | 94.2 | 107 | 115
8 | Cn1cc(C2=C(c3cn(C4CCN(Cc5ccccn5)CC4)c4ccccc34)C(=O)NC2=O)c2ccccc21 [Enzastaurin] + c1cc(-c2cnn3cc(-c4ccc(OCCN5CCCCC5)cc4)cnc23)ccn1 [Dorsomorphin] (first compound 0.8 µM, partner dose 0.4 µM) | 110 | 88.9 | 71.3 | 130 | 87 | 134
9 | C[C@]12O[C@H](C[C@]1(O)CO)n1c3ccccc3c3c4c(c5c6ccccc6n2c5c31)CNC4=O [Lestaurtinib] + CS(=O)(=O)CCNCc1ccc(-c2ccc3ncnc(Nc4ccc(OCc5cccc(F)c5)c(Cl)c4)c3c2)o1 [lapatinib] (first compound 0.004 µM, partner dose 0.8 µM) | 99.3 | 108 | 108 | 95.5 | 105 | 107
10 | C[As](C)SC[C@H](NC(=O)CC[C@H](N)C(=O)O)C(=O)NCC(=O)O [Darinaparsin] + Oc1cc(-c2nc(-c3ccccc3)[nH]c2-c2ccncc2)ccc1Cl [L779450] (first compound 0.4 µM, partner dose 0.2 µM) | 79.1 | 103 | 79.5 | 56.2 | 85.4 | 100
11 | Cn1cc(C2=C(c3cn(C4CCN(Cc5ccccn5)CC4)c4ccccc34)C(=O)NC2=O)c2ccccc21 [Enzastaurin] + Cn1sc(=O)n(Cc2ccccc2)c1=O [TDZD-8] (first compound 0.8 µM, partner dose 0.4 µM) | 112 | 118 | 102 | 121 | 116 | 83.2
12 | Cn1cc(C2=C(c3cn(C4CCN(Cc5ccccn5)CC4)c4ccccc34)C(=O)NC2=O)c2ccccc21 [Enzastaurin] + C/C(O)=C(\C#N)C(=O)Nc1cc(Br)ccc1Br [LFM-A13] (first compound 0.8 µM, partner dose 2 µM) | 99.2 | 100 | 77.7 | 88.8 | 91.4 | 113
13 | N.N.[Cl][Pt][Cl] [cisplatin] + C[C@]1(c2nc3c(C(N)=O)cccc3[nH]2)CCCN1 [Veliparib] (first compound 1.6 µM, partner dose 1.4 µM) | 85.9 | 85.2 | 93.6 | 85.5 | 79.6 | 113
14 | C[As](C)SC[C@H](NC(=O)CC[C@H](N)C(=O)O)C(=O)NCC(=O)O [Darinaparsin] + O=S(=O)(c1ccccc1)N(CC(F)(F)F)c1ccc(C(O)(C(F)(F)F)C(F)(F)F)cc1 [T0901317] (first compound 0.4 µM, partner dose 1.4 µM) | 93.6 | 90.4 | 84.3 | 89.7 | 104 | 105
15 | C[C@]12O[C@H](C[C@]1(O)CO)n1c3ccccc3c3c4c(c5c6ccccc6n2c5c31)CNC4=O [Lestaurtinib] + Cn1c(Nc2ccc(C(F)(F)F)cc2)nc2cc(Oc3ccnc(-c4ncc(C(F)(F)F)[nH]4)c3)ccc21 [CHIR265] (first compound 0.004 µM, partner dose 0.08 µM) | 67.1 | 105 | 74.4 | 71.2 | 81.7 | 120
16 | C[C@]12O[C@H](C[C@]1(O)CO)n1c3ccccc3c3c4c(c5c6ccccc6n2c5c31)CNC4=O [Lestaurtinib] + Oc1cc(-c2nc(-c3ccccc3)[nH]c2-c2ccncc2)ccc1Cl [L779450] (first compound 0.004 µM, partner dose 0.2 µM) | 79.7 | 125 | 97.7 | 49.1 | 110 | 90.6
17 | C[C@]12O[C@H](C[C@]1(O)CO)n1c3ccccc3c3c4c(c5c6ccccc6n2c5c31)CNC4=O [Lestaurtinib] + COC(=O)c1sccc1S(=O)(=O)Nc1ccc(Nc2ccccc2)cc1OC [GSK0660] (first compound 0.004 µM, partner dose 1 µM) | 116 | 111 | 95.7 | 85.9 | 122 | 96.9
18 | C[C@]12O[C@H](C[C@]1(O)CO)n1c3ccccc3c3c4c(c5c6ccccc6n2c5c31)CNC4=O [Lestaurtinib] + CC(=O)O[C@@]12CO[C@@H]1C[C@H](O)[C@@]1(C)C(=O)[C@H](O)C3=C(C)[C@@H](OC(=O)[C@H](O)[C@@H](NC(=O)OC(C)(C)C)c4ccccc4)C[C@@](O)([C@@H](OC(=O)c4ccccc4)[C@H]21)C3(C)C [Docetaxel] (first compound 0.004 µM, partner dose 0.0001 µM) | 93.3 | 55.7 | 66.1 | 54.9 | 68.9 | 68.8
19 | C[C@]12O[C@H](C[C@]1(O)CO)n1c3ccccc3c3c4c(c5c6ccccc6n2c5c31)CNC4=O [Lestaurtinib] + O=c1cc(-c2cccc3c2Sc2ccccc2S3)oc(N2CCOCC2)c1 [KU55933] (first compound 0.004 µM, partner dose 1 µM) | 94 | 117 | 90.4 | 83 | 108 | 90.3
20 | N.N.[Cl][Pt][Cl] [cisplatin] + Cc1cc(N2CCOCC2)cc2[nH]c(-c3c(NC[C@@H](O)c4cccc(Cl)c4)cc[nH]c3=O)nc12 [BMS536924] (first compound 1.6 µM, partner dose 0.2 µM) | 89.3 | 105 | 61.8 | 88.9 | 78.8 | 93.8
21 | Cn1cc(C2=C(c3cn(C4CCN(Cc5ccccn5)CC4)c4ccccc34)C(=O)NC2=O)c2ccccc21 [Enzastaurin] + CCc1ccc(CCOc2ccc(CC3SC(=O)NC3=O)cc2)nc1 [pioglitazone] (first compound 0.8 µM, partner dose 2 µM) | 122 | 114 | 85.9 | 110 | 86.5 | 111
22 | C[C@]12O[C@H](C[C@]1(O)CO)n1c3ccccc3c3c4c(c5c6ccccc6n2c5c31)CNC4=O [Lestaurtinib] + CC(C)(C)c1cnc(CSc2cnc(NC(=O)C3CCNCC3)s2)o1 [SNS-032] (first compound 0.004 µM, partner dose 0.01 µM) | 98.9 | 101 | 96.8 | 102 | 107 | 134
23 | C[As](C)SC[C@H](NC(=O)CC[C@H](N)C(=O)O)C(=O)NCC(=O)O [Darinaparsin] + CC(C)CCN1c2nc(Nc3cc(F)c(O)c(F)c3)ncc2N(C)C(=O)C1C [BID1870] (first compound 0.4 µM, partner dose 0.2 µM) | 90.4 | 82.8 | 104 | 101 | 91.4 | 104
24 | C[C@]12O[C@H](C[C@]1(O)CO)n1c3ccccc3c3c4c(c5c6ccccc6n2c5c31)CNC4=O [Lestaurtinib] + O=C(O)C(=O)Nc1sc2c(c1C(=O)O)CCNC2 [TCS401] (first compound 0.004 µM, partner dose 1.66667 µM) | 110 | 109 | 84.7 | 83.5 | 130 | 115
25 | Cn1cc(C2=C(c3cn(C4CCN(Cc5ccccn5)CC4)c4ccccc34)C(=O)NC2=O)c2ccccc21 [Enzastaurin] + O=C(O)[C@@H]1[O][Sb](=[O])([O][Sb]2(=[O])[O][C@H]([C@H](O)CO)[C@H](O)[C@H](C(=O)O)[O]2)[O][C@H]([C@H](O)CO)[C@@H]1O [stibogluconate] (first compound 0.8 µM, partner dose 2 µM) | 109 | 94.3 | 92 | 103 | 112 | 135
